Where two headings read alike, the source gives them in different places. One block for each binder: values may come before it.
How the values were obtained:
[1] = target: 4-1BB on transfected NF-κB Jurkat cells (UniProt Q07011 24-255, limits assumed); experiment: cell-based or functional assay
[2] = target: T1, 4-1BB (coated on ELISA plate) (UniProt Q07011 24-186, limits assumed); experiment: ELISA on coated 4-1BB, supernatant after 45 °C 30 min, OD450
Protocol: (§1) After centrifugation, culture supernatant was collected for determination of expression and binding activity of the 4-1BBL variants. To determine expression of the 4-1BBL variants, a 96-well plate (flat bottom) was coated with 2 μg/ml anti-His tag antibody overnight. The pre-coated plate was then blocked with 5% milk in PBS at room temperature (RT) for 1 hour. After blocking, 30 μl of bacterial supernatant was added to each well of the plate, and the plate was incubated for 1 hour at RT. After the incubation, anti-c-myc-HRP was added, and the expression level of 4-1BBL variants can be determined by measuring OD450 in a plate reader. To determine binding activity of the 4-1BBL variants, a 96-well plate (flat bottom) was coated with 0.5 μg/ml of 4-1BB overnight. The pre-coated plate was then blocked with 5% milk in PBS at RT for 1 hour. After blocking, 30μ of bacterial supernatant was added to each well of the plate, and the plate was incubated for 1 hour at RT. After the incubation, anti-c-myc-HRP was added, and the 4-1BB-binding activity of 4-1BBL variants can be determined by measuring OD450 in a plate reader.

[3] = target: T1, 4-1BB (coated on ELISA plate); experiment: ELISA on coated 4-1BB, supernatant, OD450
Protocol: as §1

[4] = target: T1, 4-1BB (coated on ELISA plate); experiment: ELISA, binding OD450 / expression OD450
Protocol: as §1
(§2) The 4-1BB-binding activity was measured using the same methods described above. […] After the incubation, the luminance signal was detected to determine the 4-1BB reporter activity.

[5] = target: T1, 4-1BB (coated on ELISA plate); experiment: ELISA, binding OD450 / expression OD450, after 45 °C 30 min
Protocol: as §1

[6] = target: T1, 4-1BB (coated on ELISA plate); experiment: ELISA, binding/expression ratio relative to WT
Protocol: as §1, §2

[7] = target: T1, 4-1BB (coated on ELISA plate); experiment: ELISA on coated 4-1BB, supernatant after 45 °C 30 min, OD450; remark: listed apart in the source
Protocol: as §1

[8] = target: T1, 4-1BB (coated on ELISA plate); experiment: ELISA, binding OD450 / expression OD450, after 45 °C 30 min; remark: listed apart in the source
Protocol: as §1

[9] = target: T1, 4-1BB (coated on ELISA plate); experiment: ELISA, binding OD450 / expression OD450; remark: listed apart in the source
Protocol: as §1

[10] = target: T1, 4-1BB (coated on ELISA plate); experiment: ELISA, binding OD450 / expression OD450; remark: listed apart in the source
Protocol: as §1

[11] = target: T1, 4-1BB (coated on ELISA plate); experiment: ELISA on coated 4-1BB, supernatant, OD450; remark: listed apart in the source
Protocol: as §1

[12] = target: T1, 4-1BB (coated on ELISA plate); experiment: ELISA on coated 4-1BB, supernatant
Protocol: as §1, §2

[13] = target: T2, 4-1BB on activated human T cells (human, UniProt Q07011 24-255); experiment: flow cytometry on activated T cells, class against wild type
T2 construct: whole, on cells
Protocol: The activated T cell (whole cell) binding activity was determined as follows. T cells were isolated from a human PBMC donor by Ficoll-Paque® density gradient centrifugation. The isolated T cells were activated by CD3/CD28 Dynabeads® at a cell-to-bead ratio of 1:2 for 4 days to induce 4-1BB expression. 5×10⁴/well of activated T cells were incubated with the G4Fc-4-1BBL variants at indicated concentrations for 30 minutes at 4° C., and then incubated with PE-conjugated anti-human Fc secondary antibody for 30 minutes at 4° C. The binding activity was analyzed by a CytoFlex™ flow cytometer.

Reporter (RLU) [1]: 3640 RLU | Reporter (vs wt) [1]: 1 | Reporter/Expression ratio [1]: 2860 | Binding (45 °C) [2]: 1.5 | Binding (25 °C) [3]: 1.86 | Binding/Expression ratio [4]: 1.74 | Binding / Expression ratio (45degrees) [5]: 1.5 | Binding (vs wt) [6]: 1 | Binding (45 °C) [7]: 1.5 | Binding / Expression ratio (45degrees) [8]: 1.28 | Binding / Expression ratio (25 degrees) [9]: 1 | Binding / Expression ratio (25 degrees) [10]: 1.11 | Binding (25 °C) [11]: 1.65 | Binding (OD450) [12]: 2.21 OD450
B1: wild-type 4-1BBL (peG4Fc_4-1BBLv2; SEQ ID NO: 3) (Fc fusion)
chain: [human IgG4 Fc with S228P (EU numbers) skipped]GGGGSGGGGSRQGMFAQLVAQNVLLIDGPLSWYSDPGLAGVSLTGGLSYKEDTKELVVAKAGVYYVFFQLELRRVVAGEGSGSVSLALHLQPLRSAAGAAALALTVDLPPASSEARNSAFGFQGRLLHLSAGQRLGVHLHTEARARHAWQLTQGATVLGLFRVT
notes: also called G4Fc-4-1BBL-wt; wild-type G4Fc-4-1BBL

binding result [13]: binds
B2: 3B5 (Fc fusion)
IgG4 Fc-4-1BBL variant fusion: [human IgG4 Fc with S228P (EU numbers) skipped]GGGGSGGGGSRQGMFAQLVAQNVLLIDGPLSWYSDPGLAGVSLTGGLSYKEDTKELVVAKAGVYYVFFQLELRRVVAKEGSGSVSLALHLQPLRSAAGAAALALTVDLPPASSEARNSAFGFQGRLLHLSAGQRLGVHLHTEARARHAWQLTQGQTVLGLFRVT
notes: also called G4Fc-4-1BBL-3B5; G4Fc-4-1BBL variant 3B5

binding result [13]: binds
B3: 3F8 (Fc fusion)
IgG4 Fc-4-1BBL variant fusion: [human IgG4 Fc with S228P (EU numbers) skipped]GGGGSGGGGSRQGMFAQLVAQNVLLIDGPLSWYNDPGLAGVSLTGGLSYKEDTKELVVAKAGVYYVFFQLELRRVVAGQGSGSVSLALHLQPLRSAAGAAALALTVDLPPASSEARNSAFGFQGRLLHLSAGQRLGVHLHTEARARHAWQLTQGATVLGLFRVT
notes: also called G4Fc-4-1BBL-3F8; G4Fc-4-1BBL variant 3F8

binding result [13]: binds
B4: 3G7 (Fc fusion)
IgG4 Fc-4-1BBL variant fusion: [human IgG4 Fc with S228P (EU numbers) skipped]GGGGSGGGGSRQGMFAQLVAQNVLLIDGPLSWYTDPGLAGVSLTGGLSYKEDTKELVVAKAGVYYVFFQLELRRVVAGEGSGSVSLALHLQPLRSAAGAAALALTVDLPPASSEARNSAFGFQGRLLHLSAGQRLGVHLHTEARARHAWQLTQGRTVLGLFRVT
notes: also called G4Fc-4-1BBL-3G7; G4Fc-4-1BBL variant 3G7

binding result [13]: binds
B5: 5G10 (Fc fusion)
IgG4 Fc-4-1BBL variant fusion: [human IgG4 Fc with S228P (EU numbers) skipped]GGGGSGGGGSRQGMFAQLVAQNVLLIDGPLSWYSDPGLAGVSLTGGLSYKEDTKELVVAKAGVYYVFFQLELRRVVAGQGSGSVSLALHLQPLRSAAGAAALALTVDLPPASSEARNSAFGFQGRLLHLSAGQRLGVHLHTEARARHAWQLTQGATVLGLFRVT
notes: also called G4Fc-4-1BBL-5G10; G4Fc-4-1BBL variant 5G10

binding result [13]: binds
B6: 2E10 (Fc fusion)
IgG4 Fc-4-1BBL variant fusion: [human IgG4 Fc with S228P (EU numbers) skipped]GGGGSGGGGSRQGMFAQLVAQNVLLIDGPLSWYTDPGLAGVSLTGGLSYKEDTKELVVAKAGVYYVFFQLELRRVVAGEGSGSVSLALHLQPLRSAAGAAALALTVDLPPASSEARNSAFGFQGRLLHLSAGQRLGVHLHTEARARHAWQLSQGATVLGLFRVT
notes: also called G4Fc-4-1BBL-2E10; G4Fc-4-1BBL variant 2E10

Reference: patent US20260193315A1 (FBD BIOLOGICS, published 2026)
